Source: PubChem BioAssay AID1030 (National Center for Advancing Translational Sciences (NCATS), 2008)
Among all 220,000 compounds or so, about 16,000 (7.3%) were called active. Inconclusive means that the source gave no clear call. Such entries were picked first, then a sample of the others. Calls come from the whole dose curve; as a rule, active = well fitted inhibition curve with a large enough effect (not every such curve was filed as active); inconclusive = small, poorly fitted or top-dose-only effect, or another doubt; inactive = no such curve, though single readings can be large or run the other way. Potencies of inconclusive entries are doubtful fits and often do not repeat.

Each compound was assayed against Aldehyde dehydrogenase 1A1 (Homo sapiens) (UniProt P00352) (assay: qHTS Assay for Inhibitors of Aldehyde Dehydrogenase 1 (ALDH1A1)). Details: Purified ALDH1A1, NADH fluorescence, propionaldehyde substrate; series mostly up to 75.3 µM.
Chain of UniProt P00352 (P00352 whole entry, looked up): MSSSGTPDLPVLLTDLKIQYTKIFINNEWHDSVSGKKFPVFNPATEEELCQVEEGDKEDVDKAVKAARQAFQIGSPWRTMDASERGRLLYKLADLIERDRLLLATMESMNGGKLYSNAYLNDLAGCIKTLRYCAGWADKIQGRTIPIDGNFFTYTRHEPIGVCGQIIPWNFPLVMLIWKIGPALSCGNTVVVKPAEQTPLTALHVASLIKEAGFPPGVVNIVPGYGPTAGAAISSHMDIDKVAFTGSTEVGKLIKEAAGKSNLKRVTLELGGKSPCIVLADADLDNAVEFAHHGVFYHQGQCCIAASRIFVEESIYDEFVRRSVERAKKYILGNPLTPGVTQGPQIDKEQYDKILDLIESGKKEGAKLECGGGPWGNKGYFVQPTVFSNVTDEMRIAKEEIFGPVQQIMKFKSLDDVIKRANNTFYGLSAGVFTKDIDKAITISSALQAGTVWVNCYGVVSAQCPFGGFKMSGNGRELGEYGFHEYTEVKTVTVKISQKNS
Potency is the fitted concentration of half-maximal effect; tags give direction and shape of the fitted curve.
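Throughout, for activity, negative = inhibition: plate controls were no enzyme wells and a reference inhibitor.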

Potency, active:
O=C(Nc1ccc2c(c1)OCO2)c1ccc(N2CCCC2)c([N+](=O)[O-])c1 15.8 µM
O=C(NC(=S)N1CCOCC1)c1cc2ccccc2o1 25.1 µM
Cc1cccc(NC(=O)Cn2c(O)c(N=NC(=O)c3ccncc3)c3ccccc32)c1 12.6 µM
Cc1ccc(S(=O)(=O)/N=C(\CN2CCCCC2)N2CCOCC2)cc1 11.2 µM
CC(=O)NN1C(=O)/C(=C/c2ccc(C(C)C)cc2)SC1=S 3.98 µM
Cc1ccc(C2CC2C(=O)NN)cc1 (centres undefined) 14.1 µM

Potency, inactive:
CCOC(=O)CNc1nc(Oc2ccc(=O)n(C)n2)nc(N(CC)CC)n1
CCOc1ccc(NC(=O)COc2ccc(OC)cc2)cc1
COc1ccc(OC)c(C2C(C(N)=O)=C(C)Nc3nc(CCCO)nn32)c1 (centres undefined)
Cc1cc(NC(=O)c2c(Cl)cnn2C)no1
CC(C)(C)OC(=O)NCCc1nnc(SCC(=O)Nc2cccc(Cl)c2)o1
O=C(N/N=C/c1ccc2c(c1)OCO2)C(=O)N1CCCC1
CN1CCN([C@@H](c2ccccc2)c2ccc(Cl)cc2)CC1
O=C(COc1c(Cl)cc(Cl)cc1Cl)c1ccc(Cl)cc1
O=C(/C=N/O)Nc1ccccc1
CC(=O)c1cn(CC(=O)Nc2ccc(C)cc2)c2ccccc12
CCOC(=O)C1(Cc2ccccc2)CCN(C2Cc3ccccc3C2)CC1
CCc1c(C)nc(N)n2c(SCC(=O)N3CCN(c4ccccc4F)CC3)nnc12
CSCCC(NC(=O)c1ccc(Cl)cc1)C(=O)OCC(=O)Nc1cc(Cl)ccc1C#N (centres undefined)
O=C(Nc1nccs1)c1cc(-c2ccccc2)nn1-c1ccccc1
CC(=O)Nc1cccc(C(=O)/C=C/c2ccc(C)cc2)c1
O=C(NNC(=O)C1CCCO1)c1ccc(F)cc1 (centres undefined)
CCCCOc1ccc(S(=O)(=O)NCc2csc(C)n2)cc1

Potency, inconclusive:
COc1ccc(CNC(=O)CN2C(=O)C3C4C=CC(C4)C3C2=O)cc1 (centres undefined) 14.1 µM [inhibitor, partial curve]
Cc1c(C(=O)c2cccc(F)c2)c2ccccn2c1CCC#N 12.6 µM [inhibitor, partial curve]
COc1ccc(OCCOC(=O)c2nc3nccc(C)n3n2)cc1 31.6 µM [inhibitor, single point]
O=C(CN(Cc1ccc2c(c1)OCO2)C(=O)CNS(=O)(=O)c1ccccc1)NCC1CCCO1 (centres undefined) 28.2 µM [inhibitor, single point]
CC1CCCN(S(=O)(=O)c2ccc(NC(=O)c3cccc(-n4cnnn4)c3)cc2)C1 (centres undefined) 22.4 µM [inhibitor, partial curve]
Cc1cc(NS(=O)(=O)c2ccccc2)c([N+](=O)[O-])cc1C 14.1 µM [inhibitor, partial curve]
COc1cc2c(cc1NC(=O)c1ccc3c(c1)OCO3)oc1ccccc12 35.5 µM [inhibitor, single point]
Cc1cccc(C)c1NC(=O)Cn1c(=O)n(CCCC(=O)NCc2ccco2)c(=O)c2sccc21 29.9 µM [inhibitor, single point]
Cc1cccc(C)c1NC(=O)CN(c1ccccn1)S(=O)(=O)c1ccccc1 39.8 µM [inhibitor, single point]
CCCC(C)NC(=O)/C=C/c1cccc([N+](=O)[O-])c1 (centres undefined) 0.891 µM [inhibitor, single point]
Cc1cccc(N2CCN(C(=S)Nc3ccc4nc(N5CCN(C)CC5)cc(C)c4c3)CC2C)c1 (centres undefined) 25.1 µM [inhibitor, partial curve]
CCOC(=O)C1CCN(c2cc(=O)n(-c3ccccc3Cl)c(=O)[nH]2)CC1 31.6 µM [inhibitor, single point]
COc1ccc(CN(C(=O)c2cccs2)C(C(=O)NC2CCCCC2)c2ccc3ncccc3c2)cc1 (centres undefined) 11.2 µM [inhibitor, partial curve]
Cc1ccccc1CSCCNC(=O)c1ccccc1 8.91 µM [inhibitor, partial curve]
COc1cccc(/C=C/c2nc3c(cnn3-c3ccccc3)c(=O)[nH]2)c1 25.1 µM [inhibitor, partial curve]
COc1ccc(N2C(=O)[C@@H]3[C@H](C2=O)[C@H](C(=O)c2ccc(OC(C)=O)cc2)N2N=CC=C[C@@H]32)cc1 39.8 µM [inhibitor, single point]
FC(F)(F)c1cccc(-c2nc3nc(Cl)c(Cl)nc3[nH]2)c1 7.08 µM [inhibitor, single point]
Cn1nc(C(=O)N2CCN(S(=O)(=O)/C=C/c3ccccc3)CC2)c2ccccc2c1=O 7.08 µM [inhibitor, full curve]
O=C(N/N=C/c1cn(-c2ccccc2)nc1-c1ccc(F)cc1)c1ccc(Br)o1 39.8 µM [inhibitor, single point]
Cc1cc(N2CC(C(=O)NCc3cccs3)CC2=O)ccc1C(C)C (centres undefined) 12.6 µM [inhibitor, partial curve]
COC(=O)c1ccc(C(c2c(N)n(Cc3ccccc3)c(=O)n(C)c2=O)N2CCOCC2)cc1 (centres undefined) 39.8 µM [inhibitor, single point]
NC(=O)C1CCN(CC(=O)N2c3ccccc3CCc3ccccc32)CC1 22.4 µM [inhibitor, single point]
CC1(C)CC2CC(C)(CN2CC(=O)C(C#N)c2ccccc2)C1 (centres undefined) 11.2 µM [inhibitor, partial curve]
COc1ccc(NC(=O)c2nc[nH]c2C(=O)Nc2ccccc2C)cc1 35.5 µM [inhibitor, single point]
O=C(c1ccc(CSCc2ccccc2F)o1)N1CCN(c2ccc(N3CCOCC3)nn2)CC1 28.2 µM [inhibitor, partial curve]
CC(C)N(C(=O)c1ccc2nc(-c3ccccc3)c(-c3ccccc3)nc2c1)C(C)C 14.1 µM [inhibitor, partial curve]
Cc1cc(OCCCC(=O)N2CCCCC2)cc(C)c1Cl 25.1 µM [inhibitor, single point]
O=C(NCc1ccc(F)cc1)C1CCCN1C(=O)NCc1ccccc1 (centres undefined) 2.24 µM [inhibitor, partial curve, poor fit]
CN(Cc1ccccc1)C(=O)COC(=O)c1ccc(Cl)cc1N 31.6 µM [inhibitor, partial curve]
COc1ccc(Oc2ncc3nc(-c4ccccc4)c(=O)n(C[C@H]4CCCO4)c3n2)cc1 31.6 µM [inhibitor, partial curve]
O=C1C2C3C=CC(C3)C2C(=O)N1CCN1CCN(Cc2ccc([N+](=O)[O-])cc2)CC1 (centres undefined) 39.8 µM [inhibitor, single point]
COc1ccc(OC)c(Nc2nc(N)nc(-c3cc4ccccc4o3)n2)c1 31.6 µM [inhibitor, single point]
O=C(NC(=S)Nc1ccc2c(c1)OCCO2)c1ccc(F)cc1Cl 37.7 µM [inhibitor, single point]
O=C(c1ccccc1)N1CCN(C(=O)c2ccc3c(c2)OCCO3)CC1 39.8 µM [inhibitor, single point]
CNC(=O)Nc1cc(C(C)(C)C)no1 20 µM [inhibitor, single point]
Cc1cccc(N2C(N)=C(C#N)C(C#N)(C#N)C2c2ccccc2)c1 (centres undefined) 22.4 µM [inhibitor, partial curve]
COc1ccc2c(c1)CN([C@H](C)[C@@H]1CC[C@@H]3[C@H]4CC[C@H]5C[C@@H](O)CC[C@@]5(C)[C@H]4CC[C@]31C)CO2 3.55 µM [inhibitor, partial curve]
Cc1ccc(C=Nc2ccccc2C(N)=O)s1 31.6 µM [inhibitor, partial curve]
CC1CCC2C(=O)N(c3ccc(NC4CCCCC4)c([N+](=O)[O-])c3)C(=O)C2C1 (centres undefined) 11.2 µM [inhibitor, partial curve, poor fit]
CC(C)C(=O)N1CCN(c2nc(-c3ccccc3)c3c(c2C#N)CC(C)(C)OC3)CC1 35.5 µM [inhibitor, single point]
O=C(C1CC(=O)N(C2CCCC2)C1)N1CCC(Cc2ccccc2)CC1 (centres undefined) 39.8 µM [inhibitor, single point]
Nc1nc(N2CCN(C/C=C/c3ccccc3)CC2)nc2ccccc12 35.5 µM [inhibitor, partial curve]
O=C(CSc1nc2scc(-c3ccco3)c2c(=O)n1-c1ccccc1)N1CCOCC1 14.1 µM [inhibitor, partial curve]
COCCNC(=O)c1cc2c(=O)n3cccc(C)c3nc2n1C 20 µM [inhibitor, partial curve]
COc1ccc(C=O)cc1CSc1nnc(COc2cccc3cccnc23)o1 39.8 µM [inhibitor, single point]

activity, negative = inhibition, inactive:
CN(C)S(=O)(=O)c1nc(Cl)c2[nH]cnc2n1 3.93% [at 13.5 µM]
